From PubChem BioAssay AID588855 (National Center for Advancing Translational Sciences (NCATS), 2011)
About 5,000 (1.2%) of roughly 410,000 compounds were called active. The shares of active, inactive and inconclusive entries below differ from those in the screen. Calls follow the shape of the dose curve; as a rule, active = well fitted inhibition curve with a large enough effect; inconclusive = small, poorly fitted or top-dose-only effect; inactive = no such curve, though single readings can be large or run the other way. Potencies beside an inconclusive call are fits to weak or partial responses and may not hold up.

Assay: qHTS for Inhibitors of TGF-b; also: nearly all actives have a fitted effect of over 65% in size
Settings: HepG2 CAGA-GFP TGF-b/SMAD3 reporter, GFP fluorescence, 18 h, TGF-beta stimulated, 500 pg/mL final; series mostly up to 46.1 µM
In short: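 First, reporter cells (HEPG2 CAGA-GFP) rested 2 h at 37 degrees C. Next, compounds were pinned in and TGF-beta added to 500 pg/mL final. After 18 h, GFP was imaged per cell and summed per well.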
Potency is read from the fitted curve at half-maximal effect; tags tell the direction and shape of the fitted curve.

Structure (SMILES) | Potency
COc1ccccc1NC(=O)Cn1c(=O)n(CCc2ccccc2)c(=O)c2c3c(sc21)CN(C(C)=O)CC3 | inconclusive: 5.01 µM [inhibitor, single point]
CCc1ccc2nc(N(CCCN(C)C)C(=O)c3ccc(S(=O)(=O)N(C)C4CCCCC4)cc3)sc2c1 | inconclusive: 11.2 µM [inhibitor, partial curve, poor fit]
O=S(=O)(c1cccc(NC(=S)N2CCN(c3ccccc3)CC2)c1)C(F)F | inconclusive: 31.6 µM [inhibitor, single point]
C#CCOCCOCCOCCNc1nc(N2CCN(C(=O)CCCCCCCCCCNC(=O)[C@H](CCCCN)n3cc(C[C@@H](C)CC)nn3)CC2)nc(N2CCN(C(=O)CCCCCCCCCCNC(=O)[C@H](CCCN=C(N)N)n3cc(C[C@@H](C)CC)nn3)CC2)n1 | active: 12.6 µM
CC(=O)C(C(C)=O)C(NC(=O)c1cccnc1)(C(F)(F)F)C(F)(F)F | inconclusive: 35.5 µM [inhibitor, single point]
COc1ccc2c(c1)-c1nc(NC(=O)c3ccccc3F)sc1CC2 | inconclusive: 35.5 µM [inhibitor, single point]
Cc1cc(S(=O)(=O)NCc2ccccc2)ccc1OCC(=O)NCc1ccccn1 | inactive
CCn1c(=O)cc(OCC(=O)NCc2ccccc2Cl)c2ccccc21 | inconclusive: 22.4 µM [inhibitor, single point]
CCCN(CC(=O)NC(=O)NC1CCCCC1)CC(=O)Nc1cc(Cl)ccc1Cl | inconclusive: 35.5 µM [inhibitor, single point]
CCCn1c(CNC(=O)Cc2ccccc2)nc2ccccc21 | inconclusive: 4.47 µM [inhibitor, single point]
CC1CCN(Cc2ccc(NC(=O)C3CCN(c4nnc(-n5cccc5)s4)CC3)cc2)CC1 | inactive
COCCCN1C(=O)C2C(C(=O)Nc3cccc(Cl)c3)C3C=CC2(O3)C1C(=O)NC1CCCCC1 (stereo not given) | inactive
COn1c(-c2ccccc2)nc2c1CCc1nonc1-2 | inactive
Cc1sc2ccccc2[n+]1CCCC[n+]1c(C)sc2ccccc21 | inconclusive: 8.91 µM [inhibitor, partial curve, poor fit]
COC(=O)[C@@H](Cc1c[nH]c2ccccc12)NC(=O)CCC(=O)c1ccc(Br)cc1 | inconclusive: 17.8 µM [inhibitor, single point]
O=C1OCCC1Sc1nnc(-c2cccs2)n1Cc1ccccc1 (stereo not given) | inconclusive: 35.5 µM [inhibitor, single point]
COc1ccc(S(=O)(=O)Nc2cccc(-c3ccc(N4CCCCCC4)nn3)c2)cc1 | inactive
Cc1c(C(=O)OCC2CCCCC2)[nH]c2c1C(=O)CC(c1ccc(Cl)cc1)C2 (stereo not given) | inactive
CC(=O)c1cccc(NC(=O)CSc2ccc(-c3ccccn3)nn2)c1 | inconclusive: 14.1 µM [inhibitor, single point]
Fc1ccccc1-c1cc2ccccc2cn1 | inconclusive: 1 µM [inhibitor, full curve, poor fit]

Structure (SMILES) | Potency
CCCN(C)CCCOc1cc2nc(N3CCCN(C)CC3)nc(NC3CCN(C)CC3)c2cc1OC | active: 14.1 µM
Cn1c(=O)[nH]c(=O)c2c1nc(CN(Cc1ccccc1)Cc1ccccc1)n2CCN1CCOCC1 | inconclusive: 0.794 µM [inhibitor, full curve, poor fit]
Cc1ccc(C(C)(C)C)cc1S(=O)(=O)Nc1nc2ccccc2nc1Cl | inconclusive: 25.1 µM [inhibitor, single point]
O=C(c1cccc(C(F)(F)F)c1)N1CCOC12CCN(c1ncc(C(F)(F)F)cc1Cl)CC2 | inconclusive: 7.08 µM [inhibitor, full curve]
CCOc1ccccc1N1C(=O)CC(Sc2n[nH]c(-c3ccccc3)n2)C1=O (stereo not given) | inconclusive: 11.2 µM [inhibitor, partial curve]
COc1ccc(CN(CCC(c2ccccc2)c2ccc(OC(C)C)cc2)C(=O)CCl)cc1OC (stereo not given) | inconclusive: 7.94 µM [inhibitor, partial curve, poor fit]
COc1ccc(O)c(C2Nc3ccccc3-n3c(-c4ccccc4)c4c(=O)n(C)c(=O)n(C)c4c32)c1 (stereo not given) | inconclusive: 0.398 µM [inhibitor, full curve, poor fit]
C/C(=N\NC(=S)Nc1cc(S(=O)(=O)N2CCOCC2)ccc1Cl)c1ccccc1F | inconclusive: 6.31 µM [inhibitor, partial curve, poor fit]
CCCCCCSc1ccc(-c2nc3cnccn3c2NCCCC)cc1 | inconclusive: 15.8 µM [inhibitor, single point]
C=CCc1cccc(/C=N/NC(=O)C(C)Nc2ccc(C)cc2)c1O (stereo not given) | inconclusive: 6.31 µM [inhibitor, partial curve, poor fit]
COc1ccc(Cc2c(-c3ccc(OC)c(OC)c3)nc3ccc(C)cn23)c(C)c1 | inconclusive: 20 µM [inhibitor, partial curve, poor fit]
CCOC(=O)C1(Cc2cccc(OC)c2)CCN(Cc2cccc(O)c2)CC1 | inactive
O=C(NC(CC(=O)N1CCN(c2ccc([N+](=O)[O-])cc2)CC1)c1ccccc1)c1ccccc1Cl (stereo not given) | inactive
COCc1cc(=O)oc2cc(NC(=O)c3ccc(C(C)(C)C)cc3)ccc12 | inactive
Cc1c(C(=O)Nc2ccc(F)cc2)nnn1-c1cccc(C(F)(F)F)c1 | inactive
COC(=O)Cc1ccc(NC(=S)NCCSc2ccc(C)cc2)cc1 | inconclusive: 35.5 µM [inhibitor, single point]
CC(=O)c1ccc(OCCCC(=O)Nc2ccc(Cl)c(S(=O)(=O)N3CCOCC3)c2)cc1 | inconclusive: 25.1 µM [inhibitor, partial curve, poor fit]
Cc1nc2ccccc2c(=O)n1/N=C/c1ccc(O)c(O)c1O | inconclusive: 22.4 µM [inhibitor, single point]
COCCCN(C(=O)c1cc(Cl)nc2ccccc12)c1c(N)n(Cc2ccccc2)c(=O)[nH]c1=O | inactive
COc1cccc(/C=N/Nc2nc3ccccc3n3cnnc23)c1O | inactive
